From PubChem BioAssay AID504832 (National Center for Advancing Translational Sciences (NCATS), 2011)
Out of some 310,000 compounds screened, about 18,000 (5.8%) were called active. Inconclusive means that the source gave no clear call. Such entries were picked first, then a sample of the others. Calls follow the shape of the dose curve; as a rule, active = well fitted inhibition curve with a large enough effect; inconclusive = small, poorly fitted or top-dose-only effect, or another doubt; inactive = no such curve, though single readings can be large or run the other way. No potency is given beside an inconclusive call; the fits are too rough.

assay: Primary qHTS for delayed death inhibitors of the malarial parasite plastid, 48 hour incubation; settings: P. falciparum luciferase growth in erythrocytes; series mostly up to 28.7 µM
Procedure, shortened: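 In quantitative HTS format, infected erythrocytes bearing luciferase-reporter parasites were treated for a single generation at 37 C. Luminescence after adding detection reagent served as the growth measure.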
Potency is read from the fitted curve at half-maximal effect; tags tell the direction and shape of the fitted curve.

SMILES	Potency
CC(C(=O)NCc1cccnc1)c1ccc([N+](=O)[O-])cc1 (stereo not drawn)	inactive
CCCCCN(C(=O)COC(=O)c1ccc(C)cc1)c1c(N)n(CCCC)c(=O)[nH]c1=O	inconclusive [inhibitor, partial curve]
Cc1nc(SCC(=O)N2CCN(C(=O)c3cccs3)CC2)c2c(C)c(C)sc2n1	inconclusive [inhibitor, partial curve, poor fit]
Cc1cc[n+](-c2ccccc2)c2ccccc12	active: 11.7 µM
Cc1nc2c(C)cccc2c2c1CCS2	inactive
C/C(CC(=O)Nc1cc(Cl)ccc1C)=N\NC(=O)C(=O)N1CCCC1	inactive
CCC(=O)N(Cc1cc2ccc(C)cc2[nH]c1=O)c1ccccc1OC	inconclusive [inhibitor, single point]
Nc1c(C(=O)NCCN2CCOCC2)c2nc3ccccc3nc2n1-c1ccc2c(c1)OCO2	inconclusive [inhibitor, single point]
COc1ccc(OC)c(NC(=O)CSc2nc3n[nH]c(C)c3c(=N)n2-c2cccc(Cl)c2C)c1	inconclusive [inhibitor, single point]
O=C(NC(=S)NC1CCCCC1)c1ccccc1[N+](=O)[O-]	inconclusive [inhibitor, full curve, poor fit]
Cc1ccc2nc(-c3ccc(NC(=O)CN(C)S(=O)(=O)c4ccccc4)cc3)sc2c1	inconclusive [inhibitor, partial curve, poor fit]
COc1ccccc1OCCCOc1ccc(C)cc1Br	inactive
OC1(c2ccccc2F)CCN(Cc2nnc(-c3ccccc3)o2)CC1	inconclusive [inhibitor, single point]
Cc1cc(CN2CCN(CC(=O)Nc3cc(Cl)ccc3-n3cncn3)CC2)no1	active: 2.08 µM
Cc1onc(-c2c(F)cccc2Cl)c1C(=O)NC(C)c1ccccc1 (stereo not drawn)	inconclusive [inhibitor, partial curve, poor fit]
COc1ccc(S(=O)(=O)N2CCC(n3cnc4cc(C(F)(F)F)ccc43)CC2)cc1	active: 5.22 µM
COc1ccc(S(=O)(=O)N2CCN(CCOc3ccc(Br)cc3)CC2)cc1OC	active: 8.28 µM
O=C1ON=C(c2ccccc2)/C1=C/c1ccc(OS(=O)(=O)c2ccccc2)cc1	inactive
CN1CCN(CC(O)(c2ccc(Cl)cc2)c2ccc(Cl)cc2)CC1	active: 9.28 µM
CC(=O)c1cc(-c2ccccc2)n(CCC(=O)NC2CCCCCCC2)c1C	inconclusive [inhibitor, partial curve]
Nc1cc(S(=O)(=O)Nc2ccccc2Cl)ccc1N1CCOCC1	inconclusive [inhibitor, single point]
O=C(Nc1cccc(-c2cnc3ccccc3n2)c1)c1ccncc1	inconclusive [inhibitor, single point]
Cc1ccc(C(C)C)c(OCCCNCc2cccnc2)c1	inconclusive [inhibitor, full curve]

SMILES	Potency
Cc1ccc(N(CCC#N)C(=O)COC(=O)C2=COCCO2)cc1	inconclusive [inhibitor, partial curve, poor fit]
Cc1ccccc1N1CC(C(=O)Nc2ccc(S(=O)(=O)N3CCCCC3)cc2)CC1=O (stereo not drawn)	inconclusive [inhibitor, single point]
CCOC(=O)c1c(CN2CCN(c3ccccc3)CC2)oc2ccc(O)cc12	inconclusive [inhibitor, partial curve, poor fit]
Cc1ccc(NC(=O)CN(C)CC(=O)Nc2ccc(F)c(Cl)c2)cc1	inconclusive [inhibitor, single point]
COc1cc2c(cc1OC)CN(C(=O)CN1C(=O)NC3(CCCCC3C)C1=O)CC2 (stereo not drawn)	inconclusive [inhibitor, partial curve, poor fit]
CCOC(=O)C1CCN(C(=O)CN2C(=O)CSc3ccc(S(=O)(=O)N4CCOCC4)cc32)CC1	inconclusive [inhibitor, partial curve, poor fit]
O=C(CCCCCn1nnc2ccccc2c1=O)Nc1ccccc1F	inconclusive [inhibitor, full curve, poor fit]
CC1CCN(c2c(NCC3CCC(C(=O)NCCCc4ccccc4)CC3)c(=O)c2=O)CC1 (stereo not drawn)	inconclusive [inhibitor, single point]
COc1ccc(/C=N/NC(=O)c2nn(-c3ccc(C)c(C)c3)c(=O)c3ccccc23)cc1	active: 13.1 µM
O=C(O)CCNC(=O)/C(=C\C=C\c1ccccc1)NC(=O)c1ccccc1	inconclusive [inhibitor, full curve, poor fit]
S=c1[nH]nc(-c2cccc(Cl)c2)n1/N=C/c1ccco1	inactive
COc1ccc(CN(C)CC(=O)Nc2ccccc2C(=O)NC2CC2)cc1	inconclusive [inhibitor, single point]
O=C(Nc1ccc2c(c1)C(=O)N(CC1CCCO1)C2=O)c1ccccc1Br (stereo not drawn)	inconclusive [inhibitor, partial curve, poor fit]
COc1ccc(OC)c(Nc2nc(-c3sc(NC(=O)CC(C)C)nc3C)cs2)c1	active: 6.57 µM
COc1cc(/C=C2\SC(=S)N(Nc3ccccc3)C2=O)ccc1O	inactive
COc1ccc(-c2nc(C#N)c(N3CCCCCC3)o2)cc1	inconclusive [inhibitor, single point]
COc1ccc(C(CC(=O)N2CCCC(C)C2)c2c(OC)cc(OC)c3ccc(=O)oc23)cc1 (stereo not drawn)	active: 11.7 µM
Cc1c(Cl)ccc2c1NC(=O)[C@]21[C@@H]2C(=O)N(Cc3ccccc3)C(=O)[C@@H]2[C@@H]2CCCN21	inconclusive [inhibitor, partial curve, poor fit]
Cc1ccnc(NC(=O)c2cccc(S(=O)(=O)N3CCCc4ccccc43)c2)c1	active: 1.85 µM
CCOc1ccc(C(C)=O)cc1CN1C(=O)c2ccccc2S1(=O)=O	inactive
CCOc1ccc(CCNC(=O)Cc2ccc(S(=O)(=O)N3CCOCC3)s2)cc1OCC	inconclusive [inhibitor, single point]
Cc1cccc(NC2=NCCCS2)c1	inactive
O=C(NNC(=O)c1ccc(Br)s1)c1cccc(S(=O)(=O)N2CCCC2)c1	inconclusive [inhibitor, single point]

SMILES	Potency
O=C(Nc1cccc(F)c1)c1ccc(S(=O)(=O)NCC2CCCO2)cc1 (stereo not drawn)	inactive
Cc1cc(C(=O)NNC(=S)Nc2cccc(C(F)(F)F)c2)nn1C	inactive
COc1cccc(C(c2nnnn2Cc2ccccc2)N2CCN(C(=O)c3ccco3)CC2)c1OC (stereo not drawn)	active: 9.28 µM
COc1cc2c(cc1NC(=S)Nc1cccc(C(F)(F)F)c1)oc1ccccc12	inconclusive [inhibitor, single point]
CCOc1ccccc1NC(=O)C(c1ccccc1)N1CCN(CC(=O)N2CCOCC2)CC1 (stereo not drawn)	inconclusive [inhibitor, single point]
CCC(CC)C(=O)Nc1cccc(C(=O)Nc2ccc(S(=O)(=O)Nc3ccc(C)cc3)cc2)c1	inconclusive [inhibitor, partial curve]
CC1CCN(S(=O)(=O)c2ccc(F)c(C(=O)O)c2)CC1	inconclusive [inhibitor, full curve, poor fit]
COc1cc2c(cc1OC)C(c1ccccc1C(F)(F)F)CC(=O)N2 (stereo not drawn)	inconclusive [inhibitor, partial curve, poor fit]
Cc1ccc(NC(=O)c2ccc(OC(=O)COc3ccc(Cl)c(C)c3)cc2)cc1	inactive
CC(=O)c1ccc(OCCNS(=O)(=O)c2ccc(-n3cnnn3)c(C)c2)cc1	inactive
O=C(Cc1cccs1)Nc1cccc(-c2nnc(-c3ccco3)o2)c1	inconclusive [inhibitor, partial curve, poor fit]
CC(=O)N1c2ccc(S(=O)(=O)NCCC(=O)Nc3ccc(F)cc3C)cc2CC1C (stereo not drawn)	inactive
CC1Sc2ccc(S(=O)(=O)N3CCC(C(=O)N4CCN(C)CC4)CC3)cc2NC1=O (stereo not drawn)	inconclusive [inhibitor, partial curve]
O=C(O)c1cc([N+](=O)[O-])ccc1N1CCCCC1	inactive
Cc1c(C(=O)NCc2ccco2)oc2c(F)cccc12	inconclusive [inhibitor, single point]
COc1ccc([N+](=O)[O-])cc1NC(=O)c1cccs1	inactive
COc1cccc(-c2nc(NCCN3CCOCC3)c3ccccc3n2)c1O	inconclusive [inhibitor, partial curve, poor fit]
Cc1ccnc(NS(=O)(=O)c2ccc(NS(=O)(=O)c3ccc(Br)cc3)cc2)n1	inactive
O=C(CCN1C(=O)c2ccccc2C1=O)NCCCn1ccnc1	inconclusive [inhibitor, partial curve, poor fit]
Cc1cc(C)c(S(=O)(=O)Nc2c(C)[nH]c(=O)[nH]c2=O)c(C)c1	inconclusive [inhibitor, single point]
NS(=O)(=O)c1ccc(NC(=O)CSc2nnc(C3CC3)n2C2CC2)cc1	inconclusive [inhibitor, single point]
CN(C)C(=O)[C@H]1C[C@H]1[C@@H](O)[C@H](CO)NC(=O)[C@H](Cc1ccccc1)NC(=O)OC(C)(C)C	inactive
